Source: PubChem BioAssay AID2675 (National Center for Advancing Translational Sciences (NCATS), 2010)
The campaign covered roughly 280,000 compounds. About 100 (0.036%) were called active. Calls come from the whole dose curve; as a rule, active = well fitted inhibition curve with a large enough effect in the signal ratio, with a control signal flat (not every such curve was filed as active); inconclusive = small, poorly fitted or top-dose-only effect, or effect the other way, or a change in a side signal; inactive = no such curve, though single readings can be large or run the other way; the % refers to the signal ratio. Inconclusive means that the source gave no clear call. A potency beside an inconclusive call is a rough fit, not a confirmed value. A note “side channel” means that the fit belongs to a control or component signal, not to the main read-out.

molecular target: Muscleblind-like protein 1 (Homo sapiens) (UniProt Q9NR56); assay: qHTS Assay for Inhibitors of MBNL1-poly(CUG) RNA binding; settings: TR-FRET MBNL1-His/biotin-(CUG)12 binding, 665/545 ratio; series mostly up to 57.5 µM
Sequence of UniProt Q9NR56 (Q9NR56 whole entry, looked up): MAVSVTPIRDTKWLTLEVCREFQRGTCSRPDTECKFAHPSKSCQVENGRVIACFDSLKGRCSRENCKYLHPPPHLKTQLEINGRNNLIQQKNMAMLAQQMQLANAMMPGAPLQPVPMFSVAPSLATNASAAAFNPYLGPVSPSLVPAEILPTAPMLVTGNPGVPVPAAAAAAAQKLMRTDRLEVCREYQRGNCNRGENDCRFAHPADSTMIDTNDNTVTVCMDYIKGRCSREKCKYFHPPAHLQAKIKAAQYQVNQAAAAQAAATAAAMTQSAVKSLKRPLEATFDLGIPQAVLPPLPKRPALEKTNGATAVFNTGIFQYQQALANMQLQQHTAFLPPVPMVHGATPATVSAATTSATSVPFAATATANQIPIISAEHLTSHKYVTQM
How it was run: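 His-tagged MBNL1 binding to biotinylated (CUG)12 RNA was measured by TR-FRET using terbium anti-His antibody (0.055 ng/ul final) and streptavidin-XL665 (5 nM final). Compounds were titrated 92 nM to 58 uM; 60 min at room temperature.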
Potency is the fitted concentration of half-maximal effect; tags give direction and shape of the fitted curve or compound fluorescence and quenching.

Q: With NCCCC[C@@H]1NC(=O)c2cc([N+](=O)[O-])cc(I)c2SC[C@@H](C(N)=O)NC(=O)[C@H](Cc2ccc(O)cc2)NC1=O as the molecule, how does the Potency read?
A: inconclusive: 12.6 µM [quencher, side channel, partial curve]

Q: How did the Potency turn out when Cc1[nH]n(-c2ccccc2)c(=O)c1C(=O)c1ccc([N+](=O)[O-])cc1 was run?
A: inconclusive: 14.1 µM [quencher, side channel, partial curve]

Q: For COc1ccc(C2CC(=O)Nc3sc(=N)c4c(N)c(C#N)c(N)nc4c32)cc1OC (centres undefined), which Potency is on record?
A: inconclusive: 39.8 µM [fluorescent, side channel, single point]

Q: Cc1nc(NC(=O)c2cccc(-c3cc4ccccc4oc3=O)c2)ccc1Br was tested. Which Potency did it give?
A: inconclusive: 0.891 µM [fluorescent, side channel, partial curve]

Q: How did the Potency turn out when C=CCn1c(O)c2ccc(C(=O)N=NC(=O)COc3ccc(OC)cc3)cc2c1O was run?
A: inconclusive: 4.47 µM [quencher, side channel, partial curve]

Q: CCNC(=O)CSc1nnc(-c2cc(-c3ccc(Cl)cc3)nc3ccccc23)o1 was tested. Which Potency did it give?
A: inconclusive: 39.8 µM [quencher, side channel, partial curve]

Q: With O=C(NNc1c2ccccc2nc2ccccc12)c1ccc(O)cc1O as the molecule, how does the Potency read?
A: inconclusive: 15.8 µM [quencher, partial curve, poor fit]

Q: Which Potency does the source give for Nc1nc(Nc2ccccc2Br)nc(C(F)(F)F)n1 here?
A: inconclusive: 0.141 µM [quencher, side channel, full curve]

Q: COc1ccc(CCn2c(=N)c(C(=O)NCC3CCCO3)cc3c(=O)n4ccccc4nc32)cc1OC (centres undefined) was tested. Which Potency did it give?
A: inconclusive: 6.31 µM [quencher, side channel, partial curve]

Q: How did the Potency turn out when Cc1c(C(=O)O)sc2nc(/C=C/c3ccccc3OC(F)F)[nH]c(=O)c12 was run?
A: inconclusive: 7.08 µM [quencher, side channel, partial curve]

Q: How did the Potency turn out when CC1CC(C)CN(c2ccc(-n3cnnn3)cc2[N+](=O)[O-])C1 (centres undefined) was run?
A: inconclusive: 14.1 µM [quencher, partial curve]

Q: COc1ccc(CN2C(=O)c3cccnc3C2=O)cc1S(=O)(=O)N1CC(C)CC(C)C1 (centres undefined) was tested. Which Potency did it give?
A: inconclusive: 11.2 µM [quencher, side channel, partial curve]

Q: For Oc1ccc(CNc2ccccc2O)cc1, which Potency is on record?
A: inconclusive: 35.5 µM [quencher, side channel, single point]

Q: CN(C)C(/C=C/Nc1cccc([N+](=O)[O-])c1)=C(C#N)C#N was tested. Which Potency did it give?
A: inconclusive: 11.2 µM [quencher, side channel, partial curve]
